Data on 56 compounds can be found in PubChem BioAssay AID463173 (ICCB-Longwood Screening Facility, Harvard Medical School, 2010).

Structures are written as SMILES. In all, about 52,000 compounds went through this assay and about 4,300 (8.3%) were called active. Rule as the data show it: active = survival mostly below about 52% (no sharp cut-off); inactive = mostly above about 56%. The list shows a part of the results.

This experiment deals with DeltatarO mutant. As to the kind of experiment: S. aureus survival, RN4220 and DeltatarO strains – OD600, teichoic acid synthesis inhibitors, primary screen (AID 463173). Particulars: S. aureus RN4220 wild type/DeltatarO growth, OD600, 18 h, hits give low values, screened at 18.75 µg/mL (by protocol).
With `CCn1nc(C)c2c(-c3ccccc3)cc(=O)n(C(C)C(=O)Nc3cc(C)ccc3C)c21` (stereo unspecified), the survival was inactive: 73%. The value for `COc1ccc(N2CCN(C(=O)C(C)n3nc(C)c4sc5ccccc5c4c3=O)CC2)cc1` (stereo unspecified) was inactive: 106%; that for `CCc1ccc(NC(=O)Cn2nc(SC)c(S(=O)(=O)c3ccc(OC)cc3)c2N)cc1` was inactive: 118%. To `CCOC(=O)c1c(NC(=O)C2c3ccccc3Oc3ccccc32)sc2c1CCC(CC)C2` (stereo unspecified) belongs inactive: 52%; to `CCCCC(CC)CNC(=O)CCCCn1c(=O)[nH]c2ccsc2c1=O` (stereo unspecified), inactive: 63%; to `COC(=O)c1sc(N2C(=O)c3oc4ccc(C)cc4c(=O)c3C2c2ccc(O)c(OC)c2)nc1C` (stereo unspecified), inactive: 180%.

Regarding `COc1ccc(CCNc2nc(SCc3ccccc3F)nc3ccccc23)cc1OC`, the survival was inactive: 94%. For the compound `COC(=O)c1ccc(C(=O)OC)c(NC(=O)c2c(-c3ccccc3)noc2C)c1`, the survival was inactive: 147%. As for `COc1ccc(OCc2nnc(SCC(=O)NCc3ccco3)o2)cc1`, the survival was inactive: 85%. To `COC(=O)c1nnn(CC(=O)Nc2c(C)cccc2C)c1N` belongs inactive: 87%; to `COc1cc(CN(C(=O)Nc2cccc(Cl)c2)c2ccccn2)cc(OC)c1OC`, inactive: 68%; to `CC(=O)c1cccc(NC(=O)CCn2nc(C)c(S(=O)(=O)N(C)C)c2C)c1`, inactive: 88%. To `S=c1[nH]nc(CNc2cccc(Cl)c2)o1` belongs inactive: 65%; to `Cc1ccc(C(=O)NCC(c2cccs2)S(=O)(=O)c2ccccc2)cc1C` (stereo unspecified), inactive: 125%; to `CC(C)Nc1nc2c(S(=O)(=O)c3cccc(Cl)c3)nnn2c2ccsc12`, inactive: 70%. The value for `CC(C)CCNC(=O)c1ccc2nc(CCc3ccccc3)oc2c1` was inactive: 49%. As for `C=CCc1ccccc1OCc1nc2ccc(C)cc2[nH]1`, the survival was inactive: 65%. To `Cc1ccccc1NC(=O)CC1NCCNC1=O` (stereo unspecified) belongs inactive: 144%; to `COc1ccc(-n2ncc(C(=O)N3CCN(C4CCCCC4)CC3)c2C2CCN(C(=O)OC(C)(C)C)CC2)cc1`, inactive: 89%. To `Cn1c(=O)n(CC(=O)O)c(=O)c2c1nc1n2CCCN1c1ccc(Cl)cc1` belongs inactive: 97%; to `CCN(CC)S(=O)(=O)c1ccc2c(c1)c(=O)c(C(=O)NCCc1ccccc1)cn2C`, inactive: 85%; to `CCOC(=O)Cc1c(C)nc2cc(-c3ccc(C(C)(C)C)cc3)nn2c1C`, active: -4%.

In the case of `Cc1csc2nc(COc3ccc(NC(=O)C(C)C)cc3)cc(=O)n12`, the survival is inactive: 98%.

For `CN(c1ccc(C(=O)N2CCc3ccccc3C2)cc1)S(C)(=O)=O`, the survival was inactive: 72%.

In the case of `Cc1nc2c3ccccc3nc(NNC(=O)CCC(=O)N3CCN(c4cc(Cl)ccc4C)CC3)n2n1`, the survival was active: 55%. Take `COc1ccc(OCC(=O)Nc2cccc(C(=O)OCc3cc(=O)n4nc(C)sc4n3)c2)cc1`: the survival is inactive: 107%.

As for `CCc1cccc(NC(=O)CSc2nc3ccccc3nc2N2CCCCC2)c1`, the survival was active: -6%. To `CNC(=O)CCCN1C(=O)CCn2nc(-c3cn(C)c4ccccc34)cc21` belongs inactive: 128%; to `COCc1cc(C)nc2sc(C(=O)Nc3ccc(C(C)=O)cc3)c(N)c12`, inactive: 81%. The value for `Cc1cccc(N2CCN(C(=O)c3cnn(-c4ccc(F)cc4F)c3C3CCN(C(=O)OC(C)(C)C)CC3)CC2)c1C` was inactive: 82%. Turning to `Cc1ccc(CNC(=O)Cn2nc(N3CCN(c4ccccc4)CC3)ccc2=O)cc1`, the survival is inactive: 61%. `CCOc1ccc(NC(=O)CC2C(=O)N(c3ccccc3)C(=O)N2C2CCCC2)cc1` (stereo unspecified): the survival was inactive: 73%. As to `Cc1ccc(NC(=O)CSc2nc3ccccc3c(=O)n2CCC(=O)NC2CCCCC2)cc1C`, the survival is inactive: 86%.

For `CCOc1ccccc1NC(=O)c1cc2cc3cc(C)ccc3nc2s1`, the survival was inactive: 91%. The value for `CCOC(=O)c1cc2c(=O)n3ccccc3nc2n(Cc2ccco2)c1=NC(=O)c1cccc(C)c1` was active: 33%. To `CCCNC(=O)CSc1c2c(nc3ccc(Cl)cc13)CCCC2` belongs inactive: 62%.

Take `CCCn1c2ccccc2c2cnn(CC(=O)N(CC)c3cc(C)ccc3C)c(=O)c21`: the survival is inactive: 77%.

Regarding `O=C(O)CN1C(=O)/C(=N\N2C(=O)CSC2=S)c2ccccc21`, the survival was inactive: 73%. `Cc1ccc2oc(=O)c3cnn(CC(=O)N4CCN(c5ccccc5F)CC4)c3c2c1`: the survival is inactive: 88%. To `Cc1ccc(NC(=O)Nc2cn(C)c(=O)c3ccccc23)c(Cl)c1` belongs inactive: 89%. To `Cc1cccc(N2CCN(C(=O)C3CCN(S(=O)(=O)c4c(C)noc4/C=C/c4ccccc4F)CC3)CC2C)c1` (stereo unspecified) belongs inactive: 80%. The value for `Cc1cc(=O)n(Cc2ccccc2)c2c1c(C)nn2-c1ccccc1` was inactive: 89%; that for `CCc1ccccc1NC(=O)c1ccc(Cn2nc(N3CCN(c4ccccc4)CC3)ccc2=O)o1` was inactive: 75%.

With `COc1cc(NC(=O)CCc2c(C)nc3c(-c4ccc(F)cc4)c(C)nn3c2C)cc(OC)c1OC`, the survival is inactive: 123%. To `COc1ccc(C)cc1S(=O)(=O)NCc1ccccc1` belongs inactive: 75%. The value for `O=C(CNCc1ccco1)Nc1ccc(Oc2ccccc2)cc1` was inactive: 89%; that for `COc1ccc(CNC(=O)C(Cc2ccccc2)NS(=O)(=O)c2ccc3c(c2)CCN3C(C)=O)cc1` (stereo unspecified) was inactive: 104%. The value for `CCCSc1ncc(Cl)c(C(=O)N2CCN(c3cccc(Cl)c3)CC2)n1` was active: 40%; that for `Cc1ccc2c(C)nc(Nc3nccc(C)n3)nc2c1` was inactive: 94%; that for `CCOc1ccc(NC(=O)CC2C(=O)N(c3ccc(OC)cc3)C(=O)N2C2CCCCC2)cc1` (stereo unspecified) was inactive: 110%. `CCC(=O)N1CCc2cc(CNS(=O)(=O)c3ccc(C(C)C)cc3)ccc21`: the survival was inactive: 65%. As to `CCOC(=O)c1c(NC(=O)/C=C/c2ccc(OCC)cc2)sc(C(C)=O)c1C`, the survival is inactive: 62%. The value for `Cc1nn(-c2ccccc2)c2sc(C(=O)Nc3cccc(Cl)c3)cc12` was active: 2%. In the case of `COc1cc2nc(NCCc3ccccc3)n3nc(-c4cccnc4)nc3c2cc1OC`, the survival was inactive: 118%. The value for `COC(=O)c1ccc2c(=O)n(CCCCCC(=O)N3CCN(c4cc(C)ccc4C)CC3)c(=O)[nH]c2c1` was inactive: 82%. Regarding `Cc1ccc(C)c(N2CCN(C(=O)CCS(=O)(=O)c3cc(Br)cc4c3N(C(=O)C3CC3)CC4)CC2)c1`, the survival is inactive: 62%.
